According to paper PMC4336329 (PLoS ONE, 2015):
Among all 310,000 compounds or so, about 2,200 (0.71%) showed an effect of 50% or more. The effect is printed as a negative number. The list shows a part of the results.

Target: human ether-à-go-go-related gene (hERG) potassium channel (human, UniProt Q12809)
Assay: primary screen, population patch clamp on CHO cells stably expressing hERG

Sequence of human ether-à-go-go-related gene (hERG) potassium channel (Q12809 whole entry, looked up): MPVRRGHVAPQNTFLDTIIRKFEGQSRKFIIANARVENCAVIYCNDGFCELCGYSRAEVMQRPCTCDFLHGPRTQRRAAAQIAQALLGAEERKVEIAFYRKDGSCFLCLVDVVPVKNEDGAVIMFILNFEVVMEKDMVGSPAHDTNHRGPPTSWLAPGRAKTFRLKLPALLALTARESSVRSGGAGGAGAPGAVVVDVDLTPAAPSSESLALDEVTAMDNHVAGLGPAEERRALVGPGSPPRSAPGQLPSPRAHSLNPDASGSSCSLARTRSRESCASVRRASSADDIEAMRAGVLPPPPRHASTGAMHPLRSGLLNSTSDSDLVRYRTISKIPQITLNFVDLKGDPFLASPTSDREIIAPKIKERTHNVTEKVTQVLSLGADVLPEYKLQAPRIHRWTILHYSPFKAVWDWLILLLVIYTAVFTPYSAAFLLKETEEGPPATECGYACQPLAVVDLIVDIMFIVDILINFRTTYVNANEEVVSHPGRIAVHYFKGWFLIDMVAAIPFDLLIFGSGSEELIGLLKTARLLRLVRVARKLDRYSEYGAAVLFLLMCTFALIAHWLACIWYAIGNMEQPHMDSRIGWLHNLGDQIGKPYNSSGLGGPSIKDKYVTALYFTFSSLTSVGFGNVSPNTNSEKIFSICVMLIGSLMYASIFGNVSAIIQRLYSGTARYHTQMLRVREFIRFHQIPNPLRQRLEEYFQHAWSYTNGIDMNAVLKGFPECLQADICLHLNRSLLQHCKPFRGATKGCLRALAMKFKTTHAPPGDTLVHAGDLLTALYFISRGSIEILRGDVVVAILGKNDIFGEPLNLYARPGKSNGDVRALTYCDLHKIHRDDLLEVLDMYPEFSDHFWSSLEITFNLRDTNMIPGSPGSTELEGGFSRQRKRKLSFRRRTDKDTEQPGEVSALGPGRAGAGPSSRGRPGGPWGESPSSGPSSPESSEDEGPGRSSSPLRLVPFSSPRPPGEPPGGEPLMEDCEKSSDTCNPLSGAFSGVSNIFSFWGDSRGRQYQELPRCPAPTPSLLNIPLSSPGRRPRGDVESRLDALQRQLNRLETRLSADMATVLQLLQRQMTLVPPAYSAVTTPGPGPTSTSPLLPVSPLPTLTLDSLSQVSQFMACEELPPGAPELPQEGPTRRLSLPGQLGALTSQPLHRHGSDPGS

Structure (SMILES) | hERG current change (%, negative = inhibition) at 1uM [%]
CC(=O)N1CCN(C(=O)C(Cc2c[nH]c3ccccc23)NC(=O)c2ccccc2Cl)CC1 (centres unmarked) | 15.9
COc1ccc(NC(=O)c2ccc3c(c2)NC(=O)CS3)cc1 | 16.6
Nc1ccc(Oc2c(Cl)cccc2Cl)nc1 | 0.173
COc1ccc(C)cc1S(=O)(=O)n1c([N+](=O)[O-])cnc1C | 13.5
Cc1ccn2c(CN(C)CCn3nc(C)cc3C)c(C(=O)N3CCCCCC3)nc2c1 | 25.4
CCCN1Cc2cccc(C(=O)NC(CC(=O)OCC)c3ccc(C)cc3)c2C1=O (centres unmarked) | 1.17
CC(C)c1ccc(NC(=O)CCN2C(=O)[C@@H]3Cc4ccccc4CN3C2=O)cc1 | 12.5
O=C(NC1CCCCCC1)C1CCN(C(=O)c2cccc(Cl)c2)CC1 | 8.77
Cc1ccc(N(C(=O)C2CCCO2)C2C=CS(=O)(=O)C2)cc1Cl (centres unmarked) | -2.71
COCCN(C(=O)CSc1nnc(-c2cccc(F)c2)n1N)c1c(N)n(Cc2ccccc2)c(=O)[nH]c1=O | 4.08
C#CCOCCOCCOCCNc1nc(N2CCN(C(=O)C(CCC(=O)O)n3cc(C(N)CC(C)C)nn3)CC2)nc(N2CCN(C(=O)C(Cc3cc4ccccc4[nH]3)n3cc(C(N)Cc4ccc(O)cc4)nn3)CC2)n1.Cl (centres unmarked) | 3.03
O=C(NC1CCCCC1)C(c1ccc(Cl)cc1)N(C(=O)c1ccccn1)c1cccnc1 (centres unmarked) | 22.6
COc1cccc(OCC(=O)Nc2ccc(OC)c(OC)c2)c1 | 5.26
COc1ccc(-c2ccc(CO)o2)cc1N | 15.8
COc1ccccc1OCc1nc(C#N)c(N2CCC(C(N)=O)CC2)o1 | -11.8
CCc1ccc2c(c1)C(c1ccc([N+](=O)[O-])cc1)=NNC(c1ccccc1)=N2 | 4.22
COc1ccccc1C(=O)N/N=C(\C)CC(=O)Nc1ccc(Cl)cn1 | 4.38
CSC1=NCCN1C(=O)c1ccc(C)cc1 | 6.89
COc1ccc(N(C(=O)c2cccnc2)S(=O)(=O)c2cc(OC)ccc2OC)cc1 | 0.396
CCN(CC(=O)Nc1c(F)cccc1F)C(=O)c1ccc(COc2ccccc2)cc1 | -1.13
COc1ccc([C@H]2CC(=O)C=C(c3cc(F)ccc3OC)C2)cc1 | 11.8
CC1(C)CC(=O)C(C=NCC2CCN(C(=S)Nc3cccc(Cl)c3)CC2)=C(O)C1 | -8.16
CC(NC(=O)c1cc(-c2cccs2)on1)c1ccccc1 (centres unmarked) | 15.3
CCOC(=O)C(=O)Nc1ccccc1C(N)=O | -8.85
CCn1c(SCC(=O)N/N=C/C=C/c2ccccc2[N+](=O)[O-])nnc1-c1ccccc1 | 7.15
CCCCNC(=S)Nc1ccc2[nH]c(=O)[nH]c2c1 | 6.39
Cc1c(C(=O)Nc2ccc(C(=O)Nc3ccccc3)cc2)cccc1[N+](=O)[O-] | 21

Structure (SMILES) | hERG current change (%, negative = inhibition) at 1uM [%]
COc1ccc(-n2c(Cc3cccn3C)nnc2SCC(=O)Nc2cc(C)cc(C)c2)cc1 | -33.3
COc1ccccc1S(=O)Cc1ccc(C(=O)NCCc2ccc(Cl)cc2)o1 (centres unmarked) | -26.3
CN1CCN(Cc2cc(=O)oc3cc4c(cc23)CCC4)CC1 | 3.09
Cn1c(=O)n(C)c2cc(NC(=O)CCc3ccccc3)c(Br)cc21 | 12.8
O=C(COC(=O)c1ccc2c(c1)OCO2)NCc1ccc(Cl)cc1 | 6.6
CCN1CCN(c2ccc(S(=O)(=O)N3CCCCC3)cc2NC(=O)C(C)Oc2ccc(F)cc2)CC1 (centres unmarked) | -13.9
COc1ccc(CCn2c(O)c(C=Nc3ccc(F)cc3)c(=O)[nH]c2=O)cc1OC | 2.52
Cc1ccccc1NC(=O)OCCN1CCN(Cc2ccccc2)CCC1=O | 8.86
O=C(NCc1ccccn1)C1CCN(S(=O)(=O)c2cccs2)CC1 | -9.76
CCS(=O)(=O)C1=NN2C(=N)/C(=C\c3ccc(OC(=O)c4ccco4)c(Br)c3)C(=O)N=C2S1 | 12.6
Cc1cc(C)n2nc(C(=O)OCC(=O)c3ccc(F)cc3)nc2n1 | 9.39
COc1cccc(OC)c1C(=O)Nc1nc(-c2ccccc2)cs1 | 7.23
OCCC1CN(Cc2nc(-c3ccccc3)cs2)CCN1CCc1ccccc1 (centres unmarked) | -42.8
O=C(CN1CCC(NC(=O)Nc2ccccc2)CC1)Nc1ccccc1F | 3.31
Cc1ccccc1S(=O)(=O)Cc1ccc(C(=O)NC(C)c2ccccc2)o1 (centres unmarked) | 28.3
COCCN(C(=O)CNC(=O)c1cccs1)C(C(=O)NC1CCCCC1)c1ccco1 (centres unmarked) | -4.92
Cc1cc2c(=O)n(C)c(SCC(=O)c3cc4ccccc4o3)nc2s1 | 12.8
COc1ccc(-c2nnc(NC(=O)Cc3ccccc3)s2)c(OC)c1 | 13.6
O=C(COc1ccccc1)N1CCN(CC2CC=CCC2)CC1.O=C(O)C(=O)O (centres unmarked) | -8.91
CNS(=O)(=O)c1cccc(C(=O)OCCCC(=O)c2ccccc2)c1 | -10.3
CS(=O)(=O)N1CCc2cc(S(=O)(=O)Nc3ccc4oc5c(c4c3)CCCC5)ccc21 | 4.48
COc1ccc(N2CC(C(=O)NCCC3=CCCCC3)CC2=O)c(OC)c1 (centres unmarked) | 7.9
Cc1ccc(Nc2nnc(SCc3cc(=O)n4ccsc4n3)s2)c(C)c1 | 5.62
O=C(/C(=C/O)N=Nc1cccc(C(F)(F)F)c1)c1ccccc1 | 12.4
CCn1c(N2CCN(C(=S)NC)CC2)nc2ccccc21 | -9.88
CC1(c2ccc(Cl)cc2)NC(=O)N(CC(=O)Nc2cccnc2Cl)C1=O (centres unmarked) | 3.26
